# The whole screen tested about 310,000 compounds, of which about 18,000 (5.8%) were called active. Inconclusive results, whose numbers are uncertain, are shown with a selection of clear calls. Calls follow the shape of the dose curve; as a rule, active = well fitted inhibition curve with a large enough effect; inconclusive = small, poorly fitted or top-dose-only effect, or another doubt; inactive = no such curve, though single readings can be large or run the other way. Potencies of inconclusive entries are left out as doubtful fits.
# Assay: Primary qHTS for delayed death inhibitors of the malarial parasite plastid, 48 hour incubation
# Conditions: P. falciparum luciferase growth in erythrocytes; series mostly up to 28.7 µM
# In short: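 Here the parasites carry a stable luciferase gene and grow inside erythrocytes in Albumax-based RPMI medium with compound for one erythrocytic cycle. Activity is scored as loss of luminescent signal.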
# Potency is read from the fitted curve at half-maximal effect; tags tell the direction and shape of the fitted curve.
row,SMILES,Potency
1,CC(=O)c1ccc(NC(=O)N[C@@H](Cc2ccccc2)C(=O)O)cc1,inactive
2,CC(C)(C)OC(=O)NCCCCCNC(=O)c1nc[nH]c1C(=O)N1CCN(C(=O)OC(C)(C)C)CC1,"inconclusive [inhibitor, single point]"
3,COc1cc2c(c(OC)c1OC)-c1c(cc(OC)c(OC)c1OC)C[C@H](C)[C@H](C)C2,"inconclusive [inhibitor, single point]"
4,COc1ccc(C2=NOC(Cn3nc(C(=O)NCc4ccc(C)cc4)cc3-c3ccccc3)C2)cc1 (centres undefined),active: 10.4 µM
5,O=C(NCC(c1ccco1)N1CCCC1)c1cccc(S(=O)(=O)Nc2ccc(F)cc2)c1 (centres undefined),active: 13.1 µM
6,Cc1cc(Cl)ccc1NC(=O)CN1CCN(C(=O)c2ccco2)CC1,active: 10.4 µM
7,CCOc1cc2c(cc1OCC)-n1cccc1C(c1ccc(OC(F)F)cc1)NC2 (centres undefined),active: 13.1 µM
8,Cc1ccc(S(=O)(=O)N2CCNC(=O)C2)c(C)c1,"inconclusive [inhibitor, single point]"
9,Cc1ccc(Nc2cc(-n3nc(C)cc3C)ncn2)c(C)c1,"inconclusive [inhibitor, single point]"
10,Cc1ccc(NC(=O)NCCCc2ccccc2)cc1,inactive
11,Cc1ccc(/C=C/C(=O)c2ccccc(=O)c2O)cc1C,active: 8.28 µM
12,COc1ccc(CC(=O)Nc2nnc(C(C)C)s2)cc1,inactive
13,COc1ccccc1NC(=O)C/C(C)=N/NC(=O)c1ccccn1,inactive
14,Clc1ccc(SCCN2CCNCC2)cc1,"inconclusive [inhibitor, partial curve]"
15,CC(C)(C)OC(=O)N1CCC(NC(=O)c2nc[nH]c2C(=O)NCc2ccccc2)CC1,"inconclusive [inhibitor, partial curve, poor fit]"
16,O=C(O/N=C1\CCS(=O)(=O)c2sccc21)c1ccccc1,"inconclusive [inhibitor, single point]"
17,CC/C(=N/Nc1ccccc1)c1cnnc(-c2ccccc2)n1,active: 0.131 µM
18,COC(=O)c1sc(N)c(C(=O)OC)c1COC(=O)c1c(C)noc1C,"inconclusive [inhibitor, single point]"
19,O=C(O)c1cccc(N2C(=O)c3cccc4cccc(c34)C2=O)c1,inactive
20,CC1CCc2c(sc(NC(=O)CN3CCN(C(=O)c4ccco4)CC3)c2C#N)C1 (centres undefined),"inconclusive [inhibitor, single point]"
21,Cc1cc(=O)[nH]c(N/N=C/C2=C(N3CCOCC3)C(=C\c3ccc(Cl)cc3)/CC2)n1,"inconclusive [inhibitor, single point]"
22,Cc1cccc(C)c1NC(=O)CSc1nnc(Cn2nnc(-c3ccccc3)n2)n1-c1ccccc1,active: 9.28 µM
23,COC(=O)c1cc(NC(=O)CN2CCOCC2)cc(C(=O)OC)c1,"inconclusive [inhibitor, partial curve, poor fit]"

row,SMILES,Potency
1,Clc1ccc(-c2nnc3sc(-c4ccc(Br)o4)nn23)c(Cl)c1,inactive
2,O=C1NC2(CCC3(CC2)OCCO3)NN1c1ccccc1,inactive
3,FC(F)(F)c1ccncc1-c1nnc(C2CCCCC2)o1,"inconclusive [inhibitor, partial curve, poor fit]"
4,N[C@H](COP(=O)(O)O)C(=O)O,"inconclusive [inhibitor, single point]"
5,Cc1ccc(C)c(NC(=O)CSc2nc3ccccc3nc2N2CCOCC2)c1,"inconclusive [inhibitor, single point]"
6,CC(Sc1nc(C(F)(F)F)nc2ccccc12)C(=O)NC1CCCC1 (centres undefined),"inconclusive [inhibitor, single point]"
7,Cc1c(NC(=O)c2cccs2)cccc1NC(=O)c1cccs1,inactive
8,CCC1CCCCN1CCCNC(=O)c1cn(C)c2ccc(S(=O)(=O)N(C)C3CCCCC3)cc2c1=O (centres undefined),"inconclusive [inhibitor, partial curve]"
9,S=C(NCc1ccccc1)Nc1nccs1,"inconclusive [inhibitor, single point]"
10,COc1cccc(CNC(=O)Cc2ccc(OC)c(S(=O)(=O)N3CCOCC3)c2)c1,"inconclusive [inhibitor, partial curve, poor fit]"
11,COC(=O)[C@H]1[C@H]2C[C@@H]3c4[nH]c5cc(OC)ccc5c4CCN3C[C@H]2C[C@@H](OC(=O)c2ccc(N)cc2)[C@@H]1OC,active: 11.7 µM
12,CCn1c(Cn2nnc(-c3ccccc3)n2)nnc1SCC(=O)Nc1cccc(C)c1C,inactive
13,CN(CC1CCCN(CCc2cccc(C(F)(F)F)c2)C1)C(=O)c1ccc2nc[nH]c2c1 (centres undefined),"inconclusive [inhibitor, single point]"
14,CS(=O)(=O)c1ccc2nc(NC(=O)CN3CCN(Cc4ccccc4)CC3)sc2c1,"inconclusive [inhibitor, partial curve, poor fit]"
15,CCOC(=O)N1CCN(C(=O)c2oc3ccc(S(=O)(=O)N4CCOCC4)cc3c2C)CC1,"inconclusive [inhibitor, partial curve]"
16,COc1cccc2cc(C(C)N(CCCN3CCOCC3)C(=S)Nc3ccc(C)cc3)oc12 (centres undefined),"inconclusive [inhibitor, single point]"
17,Cc1cc(S(=O)(=O)N2CCOCC2)ccc1OCC(=O)Nc1ccc(F)c(Cl)c1,"inconclusive [inhibitor, full curve, poor fit]"
18,O=C(CCNC(=O)c1ccco1)Nc1ccccc1OC(F)F,inactive
19,Cc1cccc(OCC(=O)N=Nc2c(O)[nH]c3ccc([N+](=O)[O-])cc23)c1,"inconclusive [inhibitor, full curve, poor fit]"
20,O=C(COc1ccc(S(=O)(=O)NC2CCCCC2)cc1)NCc1ccccn1,inactive
21,CCCCc1c(CCC)c(=N)c2ccccc2n1C,"inconclusive [inhibitor, full curve, poor fit]"
22,CC1(C)OC(C(O)(c2ccccc2)c2ccccc2)[C@@H](C(O)(c2ccccc2)c2ccccc2)O1 (some centres undefined),"inconclusive [inhibitor, full curve, poor fit]"
23,COC(=O)[C@H](CC(C)C)NCc1cccc(CN[C@@H](CC(C)C)C(=O)OC)c1,"inconclusive [inhibitor, single point]"

row,SMILES,Potency
1,CC(C)n1c(N2CCN(C(=O)Nc3ccc(Cl)cc3)CC2)nc2ccccc21,"inconclusive [inhibitor, partial curve, poor fit]"
2,CCn1nccc1C(=O)Nc1ccc(S(=O)(=O)NC23CC4CC(CC(C4)C2)C3)cc1,active: 6.57 µM
3,COc1cccc2sc(Nc3nnc(-c4ccc(F)cc4)o3)nc12,active: 11.7 µM
4,Cc1occc1C(=O)Nc1cccc([N+](=O)[O-])c1C,inactive
5,CC(C)NC(=O)COc1ccc(S(=O)(=O)N(C)Cc2ccccc2)cc1,"inconclusive [inhibitor, single point]"
6,CC1(C)Cc2c(sc(NC(=O)C3CC(Cl)=CCC3C(=O)O)c2C#N)CO1 (centres undefined),"inconclusive [inhibitor, partial curve]"
7,CCOC(=O)Cn1cc([N+](=O)[O-])nc1[N+](=O)[O-],"inconclusive [inhibitor, partial curve]"
8,Cc1ccccc1C(=O)N1CCC(C(=O)N(CC(C)C)c2c(N)n(Cc3ccccc3)c(=O)[nH]c2=O)CC1,"inconclusive [inhibitor, single point]"
9,CCCc1cc(=O)oc2cc(C)cc(OCC(=O)NC3CCN(Cc4ccccc4)CC3)c12,"inconclusive [inhibitor, partial curve]"
10,CCOC(=O)c1c(C)n(C)c2ccc(OCCN(C)C)cc12,inactive
11,Brc1ccc(-c2csc3[n+]2CCCCC3)cc1,"inconclusive [inhibitor, partial curve, poor fit]"
12,C/C(CC(=O)Nc1cccnc1)=N\NC(=O)C(C)Oc1ccc(Cl)cc1Cl (centres undefined),inactive
13,O=C(CSc1ncccn1)N1CCc2ccccc2C1,inactive
14,O=C(COc1ccccc1F)Nc1ccc(S(=O)(=O)N2CCCC2)cc1,"inconclusive [inhibitor, single point]"
15,Cc1cc(/C=C2/C(=N)N3C(=NC2=O)SN=C3S(C)(=O)=O)c(C)n1-c1ccccc1,"inconclusive [inhibitor, full curve, poor fit]"
16,COc1cccc(-c2cc(=O)c3cc(NC(=O)c4ccccc4)ccc3[nH]2)c1,"inconclusive [inhibitor, partial curve, poor fit]"
17,O=C(c1ccc2c(c1)OCO2)[C@@H]1[C@@H]2C(=O)N(C3CCCCC3)C(=O)[C@@H]2C2c3ccccc3C=CN21 (some centres undefined),active: 6.57 µM
18,Nc1nc(CCl)nc(N(c2ccccc2)c2ccccc2)n1,active: 5.22 µM
19,CCOc1ccc(C(NC(=O)CC)c2c(O)ccc3ccccc23)cc1 (centres undefined),active: 13.1 µM
20,O=C1c2ccccc2C(=O)N1CCC(c1ccc(F)cc1)c1ccco1 (centres undefined),"inconclusive [inhibitor, single point]"
21,C=CCN1C(=O)NC(=O)/C(=C/c2cnc(SC)nc2)C1=O,inactive
22,CCOC(=O)c1c(C)[nH]c(C(=O)CSc2nnc(-c3cccs3)n2Cc2ccccc2)c1C,"inconclusive [inhibitor, single point]"
23,C=CCOc1ccc2ccccc2c1CNc1ncn[nH]1,"inconclusive [inhibitor, single point]"

# Reference: PubChem BioAssay AID504832 (National Center for Advancing Translational Sciences (NCATS), 2011)
